# Data taken from PubChem BioAssay AID1362 (SRMLSC, 2008).
# The list shows a part of the results. Shown are side measurements of this screen, not its main read-out; they come without a call. Most of these compounds were active or inconclusive in the main read-out, so they are no random draw.
# Test: growth inhibition of WT strain, primary screen, mitochondrial fusion inhibitor project, WT and mutant strains, chemical genetic (AID 1362); further: tested in S. cerevisiae
# Conditions: mitochondrial fusion phenotypic screen, at 10 µM
row,SMILES,inhibition [%]
1,Cc1nc(CS(=O)c2ccc(Cl)cc2)cc(NCc2ccc(Cl)cc2Cl)n1 (stereo not given),29.3
2,COc1ccc(S(=O)(=O)N2c3ccccc3OCC2C(C)(C)C)cc1 (stereo not given),-2.75
3,COc1ccc(C(=O)C[n+]2cn(C(F)F)c3ccccc32)c(F)c1,60.2
4,FC(F)(F)c1cc(-c2ccccc2)nc(NCc2cccs2)n1,16.6
5,CCn1nc(C)c(C(=O)Nc2cc(Oc3cc(C)cc(C)c3)cc([N+](=O)[O-])c2)c1C,23.3
6,CCN(CC)CCN(C(=O)c1c(F)cccc1F)c1nc2cc(C)cc(C)c2s1,56.2
7,S=c1nc(-c2sccc2OCc2ccc(Cl)cc2Cl)[nH][nH]1,18.9
8,CC(=O)NC/C(C)=N\Nc1ccc([N+](=O)[O-])cc1,63.7
9,N#C/C(=N\Nc1cccc([N+](=O)[O-])c1)C(=O)c1ccc(Br)cc1,65.7
10,CC(C)CC(=O)NC(=S)N(Cc1ccccc1)Cc1ccccc1,-8.44
11,Cc1ccc(C(=O)Nc2nc(-c3ccccc3)c(-c3ccccc3)o2)cc1,8.01
12,O=C(Nc1ncc2c(n1)CC(c1ccco1)CC2=O)c1ccccc1 (stereo not given),-2.75
13,Cc1ccc(C(=O)NC(=S)Nc2ccccc2C(F)(F)F)cc1C,59.8
14,Cc1ccc(NC(=S)NCCC2=CCCCC2)cc1,66.8
15,O=C(Nc1cccc(S(=O)(=O)Nc2ccccc2F)c1)c1ccc2ccccc2n1,73.7
16,CC(C)N(C(=S)NC1CC2CCC1C2)c1ccccc1 (stereo not given),4.45
17,Clc1cncc(Cl)c1NNc1c2ccccc2nc2ccccc12,21.5
18,C#CCn1cnc2c(cnn2-c2ccc(C)c(C)c2)c1=O,16.3
19,CC12CC3(C)CC(C)(C1)CC(C(=O)NC(=S)NC(C)(C)C)(C2)C3,-11.9
20,COc1ccc2c(C)nc(Nc3nc(C)c(C)c(=O)[nH]3)nc2c1,60.3
21,CN1CCN(C(=S)c2cn(Cc3ccc(Br)cc3)c3ccccc23)CC1,46.5
22,Cc1ccc(Nc2nc(NCc3ccco3)c3ccccc3n2)cc1,90.1

row,SMILES,inhibition [%]
1,CC(C)c1ccc(Nc2nc(NCc3ccco3)nc(N3CCOCC3)n2)cc1,26.5
2,Cc1nn(Cc2ccc(Cl)cc2Cl)c(C)c1NC(=O)NC12CC3CC(CC(C3)C1)C2,28.1
3,C1CCN=C(Nc2nc3c(s2)CCCC3)CC1,2.23
4,CC(=O)c1ccc(OC(=O)CCN2c3ccccc3Sc3ccccc32)cc1,18.7
5,COc1ccc(NC(=S)N(Cc2ccccn2)Cc2ccccc2Cl)cc1,45.7
6,Cc1ccc(CSc2nc3ccsc3c(=O)n2Cc2ccccn2)cc1,18.1
7,Cc1ccc(C)c(NC(=O)c2ccccc2C(=O)c2ccccc2)c1,12.1
8,CC(C)(C)C(=O)Cn1c(=N)n(Cc2ccccc2)c2ccccc21,35.5
9,Cc1cc(SCC(=O)NCCC2=CCCCC2)nc2ccccc12,35.3
10,N/C(=N\OC(=O)COc1ccc2ccccc2c1Br)c1ccccn1,55.6
11,CNc1cc(CSC)nc(SCc2ccc(Cl)cc2Cl)n1,80.2
12,Cc1ccc(CC2SC(=Nc3ccccc3)N(c3ccccc3)C2=O)cc1 (stereo not given),-7.37
13,Oc1ccc(/C=N/Nc2nc(N3CCCCCC3)nc(N3CCCCCC3)n2)c(O)c1,5.48
14,CCc1ccc(Nc2nc(N)nc(CSc3nc4ccccc4s3)n2)cc1,25.5
15,CCOc1ccc(OCC)c(S(=O)(=O)NCCOC23CC4CC(CC(C4)C2)C3)c1,3.53
16,CC1C/C(=C/c2ccncc2)C(=O)/C(=C/c2ccncc2)C1 (stereo not given),72.3
17,O=S(=O)(Nc1ccc(N=Nc2ccc(O)c3ccccc23)cc1)c1ccccc1,27.7
18,CCCCCCCCCS(=O)(=O)N/N=C/c1cccc([N+](=O)[O-])c1,42.7
19,Clc1ccc2oc(-c3ccccc3)cc(=NCCCN3CCOCC3)c2c1,46
20,Cc1cc(N2CCN(S(=O)(=O)c3ccc(Cl)c(Cl)c3)CC2)c2ccccc2n1,61.5
21,Cc1ccc(Nc2nc3nonc3[nH]c2=O)cc1Cl,19.6
22,CCOC(=O)c1c(C)oc2c1c(C(c1cccnc1)N1CCCCC1)c(O)c1ccccc12 (stereo not given),25.6

row,SMILES,inhibition [%]
1,CN1CCN(c2nc(-c3cccnc3)nc3ccccc23)CC1,13.6
2,COc1ccc2cnn(CCOc3cc(C)ccc3C(C)C)c(=O)c2c1OC,43.7
3,O=C(Nc1nnc(SCc2ccccc2Cl)s1)C1COc2ccccc2O1 (stereo not given),21.1
4,COCCN(C(=O)Cc1cccs1)C(C(=O)NCc1ccc(OC)cc1)c1ccc(C(C)C)cc1 (stereo not given),22.7
5,Cc1noc2ncnc(N3CCN(c4cccc(Cl)c4)CC3)c12,23.5
6,Cc1ccc(S(=O)(=O)CC(=O)Nc2nc(-c3ccccc3)cs2)cc1,44.3
7,Nc1[nH]n2c(=O)c3c(nc2c1N=Nc1ccccc1)CCCC3,9.8
8,Cc1cc(N/N=C/c2cccc(Cl)c2)nc(NCc2ccccc2)n1,81.2
9,Cc1sc2nc3c4ccccc4c(NCc4ccco4)nn3c(=O)c2c1C,10.6
10,CCOC(=O)c1c(NC(=O)C(C)N2CCN(C(=O)c3ccco3)CC2)sc2c1CCCC2 (stereo not given),-13.8
11,CC(C)(C)C(=O)/C(=C/c1cccc([N+](=O)[O-])c1)n1cncn1,41.4
12,O=c1cc(/C=C/c2ccccc2)oc2c1ccc1ccccc12,52.6
13,CCC(Sc1nnnn1-c1ccccc1)C(=O)Nc1nc2ccccc2s1 (stereo not given),35.9
14,COC(=O)c1ccc(CSc2nc3ccccc3c(=O)n2CC(C)C)o1,3.82
15,N#C/C(=C\c1ccccn1)c1nc2ccccc2s1,48.6
16,Cc1cccc2cc(-c3ccccc3)c(-c3ccccc3)c[n+]12,56.7
17,C=CCNC(=S)N(C1CCCCC1)C1CCCCC1,63.1
18,COc1cccc(N/C(C)=C/C(=O)c2ccc(Br)cc2)c1,44
19,CCN1C/C(=C\c2cccc([N+](=O)[O-])c2)C(=O)/C(=C/c2cccc([N+](=O)[O-])c2)C1,33
20,CC(NC(=O)Cn1ncc(Cl)c(Cl)c1=O)C12CC3CC(CC(C3)C1)C2 (stereo not given),44.3
21,CCCCC(c1nnnn1CC1CCCO1)N1CCN(c2cc(Cl)ccc2C)CC1 (stereo not given),5.73
22,C(=N\N1CCN(C2c3ccccc3-c3ccccc32)CC1)/c1ccccn1,45.9

row,SMILES,inhibition [%]
1,CC(NC(=S)NCc1ccc(F)cc1)C12CC3CC(CC(C3)C1)C2 (stereo not given),57
2,Cc1cccc(N2CCN(C(c3ccccc3)c3nnnn3C(C)(C)C)CC2)c1C (stereo not given),13.9
3,O=C(Cc1c(O)c2ccccc2[nH]c1=O)NCc1ccccc1F,7.59
4,Cc1ccc(-n2cccc2/C=C2\C(=N)N3N=C(C(C)C)SC3=NC2=O)cc1,30.1
5,CC(C)CNC(=S)N1CCN(C(c2ccccc2)c2ccccc2)CC1,19.7
6,CN(c1ccc(O)cc1)c1nc(-c2cccs2)cs1,24.8
7,CCOC(=O)c1oc2cccc(OCC(O)CNC(C)C)c2c1C (stereo not given),15.8
8,Fc1cccc(NC(=S)NNc2c3ccccc3nc3ccccc23)c1,31.2
9,Cc1ccc(C2NC(c3ccc(C)cc3)C(C)C(=NO)C2C)cc1 (stereo not given),73.7
10,CNc1nc(SCc2ccc(C)cc2)nc2c1CCCC2,65.8
11,c1csc(C(c2nnnn2C2CCCCC2)N2CCCC3(CCCCC3)C2)c1 (stereo not given),5.87
12,NNc1nc(-c2ccccc2)cc(-c2ccccc2)n1,56.5
13,O=C(c1cnn2c(C(F)F)cc(-c3ccccc3)nc12)N1CCc2ccccc2C1,70.5
14,CCC(C)Sc1nc2c(c(=O)n1C)SC(C)C2 (stereo not given),16.5
15,CCOC(=O)c1ccc(Oc2nc(NC(C)(C)C)nc(N(C)C)n2)cc1,19.3
16,O=C(Nc1ccccc1)c1ccc(-c2ccc(Br)cc2)o1,67.2
17,CCc1ccccc1NC(=S)N(Cc1cccs1)C1CCCC1,36.5
18,COc1ccc(C(C)(C)C)cc1NC(=O)c1ccoc1C,61.7
19,CCCN(CC(=O)Nc1cc(Cl)cc(Cl)c1)CC(=O)Nc1ccc(F)c(F)c1F,35
20,CC1CCCCC1n1c(=S)[nH]c2ccccc2c1=O (stereo not given),54.9
21,O=C(Nc1ccc(-c2nc3ccccc3[nH]2)cc1)C1CCCO1 (stereo not given),66.3
22,O=C(CCCOc1ccc(Cl)cc1Cl)N1CCc2ccccc2C1,46.5

row,SMILES,inhibition [%]
1,O=C(COC(=O)CC(c1ccccc1)c1ccccc1)NCc1ccc(Cl)cc1,-3.07
2,CC(C)(C)NC(=S)NC(=O)C12CC3CCC(CC(C3)C1)C2,37
3,CC1(CCc2ccccc2)NC(=S)N(c2ccc(Cl)cc2)N1 (stereo not given),55.8
4,CCOc1ccccc1OCC(=O)Nc1ccc(S(=O)(=O)N(C)C)cc1,11.2
5,Cc1ccc(SCCNC(=S)Nc2ccccc2)cc1,57.8
6,COc1cccc2c1C(=O)c1c(O)c3c(c(O)c1C2=O)C[C@@](O)(C(=O)CO)C[C@@H]3O[C@H]1C[C@H](N)[C@H](O)[C@H](C)O1,58.7
7,COC(=O)Nc1snnc1C,-6.92
8,CCN(CC(O)Cn1c2ccccc2c2ccccc21)S(=O)(=O)c1ccc(F)cc1 (stereo not given),32.9
9,O=C(COc1ccc(Cl)cc1Cl)NCCC1=CCCCC1,36.1
10,C=C(C)C1CC=C(C)/C(=N\NC(=S)Nc2ccc(C)cc2)C1 (stereo not given),8.44
11,CCc1nnc(NC(=O)c2ccc(S(=O)(=O)N3CCCc4ccccc43)cc2)o1,62.1
12,CC1C/C(=C/c2ccccn2)C(=O)/C(=C/c2ccccn2)C1 (stereo not given),65.9
13,Cc1cc(N2CCN(c3ccccc3)CC2)nc(-n2nc(C)cc2C)n1,58.9
14,C=CCc1c(C)[nH]c2c(OC)cccc2c1=S,33.7
15,Cc1nn(-c2nc3ccccc3[nH]2)c(=O)c2ccccc12,87.7
16,N=C(N)c1ccc(OCCCCCOc2ccc(C(=N)N)cc2)cc1,75.9
17,CCOc1ccc(NC(=O)CSc2nnc(-c3ccco3)n2C)cc1,-38.1
18,O=C(CCCCCN1C(=O)c2ccccc2C1=O)Nc1ccc(S(=O)(=O)N2CCCCC2)cc1,5.22
19,CCNc1nc(CSc2ccccc2)nc2sc(C)c(C)c12,22
20,NS(=O)(=O)c1ccc(N2N=C(c3ccccc3)CC2c2ccccc2)cc1 (stereo not given),-0.77
21,CCCc1sc(N/N=C/c2ccccn2)nc1-c1ccc(F)cc1,27.7
22,Cc1onc(-c2ccccc2Cl)c1C(=O)NC(=S)Nc1ccccc1F,62.5
